Test results taken from PubChem BioAssay AID588855 (National Center for Advancing Translational Sciences (NCATS), 2011).
“And” between values parts separate entries of the source, which are not always exact repeats. Identical values can stand only once. The whole screen tested about 410,000 compounds, of which about 5,000 (1.2%) were called active. This list was built around the results that the source calls inconclusive (neither active nor inactive); the mix of calls is not that of the screen. The call rests on the fitted dose curve; in most records, active means well fitted inhibition curve with a large enough effect; inconclusive means small, poorly fitted or top-dose-only effect; inactive means no such curve, though single readings can be large or run the other way. Potencies of inconclusive entries are doubtful fits and often do not repeat.

Test: qHTS for Inhibitors of TGF-b; further: nearly all actives have a fitted effect of over 65% in size
Conditions: HepG2 CAGA-GFP TGF-b/SMAD3 reporter, GFP fluorescence, 18 h, TGF-beta stimulated, 500 pg/mL final; series mostly up to 46.1 µM; activity, negative = inhibition: at the top concentration
How it was run: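 First, reporter cells (HEPG2 CAGA-GFP) rested 2 h at 37 degrees C. Next, compounds were pinned in and TGF-beta added to 500 pg/mL final. After 18 h, GFP was imaged per cell and summed per well.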
On the % scale 0 is the no-effect control and ±100 the full control effect; potency means the concentration at half of the fitted maximal effect; tags describe the fitted curve by direction and shape.

| SMILES | Potency | activity, negative = inhibition |
| --- | --- | --- |
| CCOc1ccc2nc(NC(=O)Cn3[nH]c(=O)c4ccccc4c3=O)sc2c1 | inconclusive: 2.82 µM [inhibitor, full curve, poor fit] |  |
| CCOC(=O)c1ccc(NC(=O)CCc2nc3cccnc3n2Cc2cccs2)cc1 | inconclusive: 11.2 µM [inhibitor, single point] |  |
| Cc1ccc(S(=O)(=O)c2cn(CC(=O)Nc3ccc(Cl)cc3)c3ccc(F)cc3c2=O)cc1C | inconclusive: 3.16 µM [inhibitor, single point] |  |
| O=C1C=C(c2cc3ccccc3s2)C[C@@H](c2ccc(Cl)cc2)C1 | inconclusive: 7.08 µM [inhibitor, partial curve, poor fit] |  |
| N#Cc1c(NC(=O)c2ccc([N+](=O)[O-])o2)sc2c1CCC2 | inconclusive: 7.08 µM [inhibitor, full curve] |  |
| Cc1cccc(NC(=S)Nc2ccc(Oc3ccccc3)cc2)n1 | inconclusive: 35.5 µM [inhibitor, single point] |  |
| COC(=O)C1(Cc2cc(-c3cccc(Br)c3)no2)CCN(C(=O)OC(C)(C)C)CC1 | inconclusive: 22.4 µM [inhibitor, single point] |  |
| CCN(Cc1ccccc1)c1ccc(/C=N/N=C(N)N)cc1 | inconclusive: 25.1 µM [inhibitor, single point] |  |
| COC(=O)c1cccc(CN2C(=O)SC(Nc3ccc(C)cc3)C2=O)c1 (centres undefined) | inconclusive: 35.5 µM [inhibitor, single point] |  |
| CCCCNc1cc(C)nc(NCc2ccccc2)n1 | inconclusive: 10 µM [inhibitor, partial curve, poor fit] |  |
| C=Cc1ccc(Cn2c(SCC(=O)N3CCN(c4ccc(F)cc4)CC3)nc3ccccc32)cc1 | inconclusive: 11.2 µM [inhibitor, partial curve, poor fit] |  |
| CCC1(c2ccc(F)cc2)NC(=O)N(CC(=O)c2ccc[nH]2)C1=O (centres undefined) | inconclusive: 35.5 µM [inhibitor, single point] |  |
| CCc1nnc(NC(=O)CSc2nnc(-c3ccco3)o2)s1 |  | inactive: -2.1% |
| Cc1cccc2sc(N(CCN(C)C)C(=O)/C=C/c3cccs3)nc12 | inconclusive: 35.5 µM [inhibitor, single point] |  |
| CC(C)Cn1c(-c2ccco2)csc1=Nc1cccnc1 | inconclusive: 35.5 µM [inhibitor, single point] |  |
| COc1cccc(CN(C)C(=S)Nc2ccc(C)c(C)c2)c1 | inconclusive: 35.5 µM [inhibitor, single point] |  |
| CC(C)(C)c1ccc(S(=O)(=O)N2CCC(CO)(CC3CCCCO3)CC2)cc1 (centres undefined) | inconclusive: 28.2 µM [inhibitor, single point] |  |
| CC(C)NC(=O)CN(C(=O)CCC(=O)Nc1nccs1)c1ccc2c(c1)OCO2 | inconclusive: 2.82 µM [inhibitor, partial curve, poor fit] |  |
| Cc1cc(C)c(C)c(/C=C(/C#N)C(N)=S)c1C | inconclusive: 14.1 µM [inhibitor, partial curve, poor fit] |  |
| Cc1nn(C)c(C)c1C(=O)NN | inconclusive: 6.31 µM [inhibitor, single point] |  |

| SMILES | Potency | activity, negative = inhibition |
| --- | --- | --- |
| COCCOc1cc(NC(=O)c2cccc(OC)c2)c(Cl)cc1Cl | inconclusive: 7.94 µM [inhibitor, partial curve, poor fit] |  |
| Cc1cc2oc(=O)cc(CN3CCCC3)c2cc1Cl | inconclusive: 35.5 µM [inhibitor, single point] |  |
| O=C(NCc1ccc(F)cc1)c1ccc2oc(=O)n(Cc3ccccc3)c2c1 |  | inactive: -11.6% |
| CC(C(=O)Nc1ccc2c(c1)OCCO2)N(C)CC(=O)Nc1ccccc1Br (centres undefined) | inconclusive: 35.5 µM [inhibitor, single point] |  |
| Cc1ccc(C(C(=O)NCC2CCCO2)N(C(=O)c2snc(C(N)=O)c2N)c2ccc3c(c2)OCCO3)cc1 (centres undefined) |  | inactive: 29.7% |
| O=C(CN1CCN(C/C=C/c2ccccc2)CC1)NC(=O)NC1CCCCC1 |  | inactive: 0% |
| COc1ccccc1NC(=O)C(=O)NCC(c1cccnc1)N1CCc2ccccc2C1 (centres undefined) | inconclusive: 17.8 µM [inhibitor, partial curve, poor fit] |  |
| COc1cccc(CNC(=O)Cn2c(=O)oc3cc(S(=O)(=O)N4CCCCCC4)ccc32)c1 | inconclusive: 14.1 µM [inhibitor, partial curve, poor fit] |  |
| Cc1ccccc1C(=O)Nc1nnc(S(=O)(=O)N2CCc3ccccc32)s1 | inconclusive: 3.16 µM [inhibitor, partial curve, poor fit] |  |
| CCCN1CCc2c(sc(NC(=O)CCS(=O)(=O)c3ccccc3)c2C(=O)OC)C1 | inconclusive: 35.5 µM [inhibitor, partial curve, poor fit] |  |
| Cc1cc(N(CCO)CCO)ccc1C(c1ccc(N(CCO)CCO)cc1C)c1ccccc1Cl | inconclusive: 35.5 µM [inhibitor, single point] |  |
| CN(C)C1(CNC(=O)C2CCC(=O)N(CCc3ccc(Cl)cc3)C2)CCCCC1 (centres undefined) |  | inactive: 0% |
| O=C1[C@H](Cc2ccccc2)NCCCC[C@H](c2ccc(Cl)cc2)N1Cc1ccc(Cl)cc1 | inconclusive: 22.4 µM [inhibitor, single point] and inconclusive: 35.5 µM [inhibitor, single point] |  |
| O=C(NNc1cc(N2CCOCC2)nc(N2CCOCC2)n1)C12CC3CC(CC(C3)C1)C2 |  | inactive: 5.46% |
| CC1=CC(C)(C)Nc2cc(C)c(C)cc21 | inconclusive: 35.5 µM [inhibitor, single point] |  |
| COc1cc(C(=O)OCc2cc(=O)n3ccsc3n2)ccc1OC(C)C | inconclusive: 3.16 µM [inhibitor, partial curve, poor fit] |  |
| CCN(CC)C(=O)CSc1nc2ccccc2c(=O)n1CCC(=O)NCCc1ccc(OC)c(OC)c1 |  | inactive: 14% |
| O=C(C1=C[C@H](c2ccccc2)C[C@H](OCc2ccc(CO)cc2)O1)N1CCN(Cc2ccc3c(c2)OCO3)CC1 |  | inactive: -20.4% |
| Cc1ccc(C2=NN(C(=O)c3cccs3)C(c3ccccc3O)C2)cc1 (centres undefined) | inconclusive: 28.2 µM [inhibitor, single point] |  |
